From patent US20250352563A1, “Method and Use of Psilocybin in the Prevention and Treatment of Stroke” (Revive Therapeutics Ltd, priority 2022, published 2025) come the findings set out here.

For this test, the system named is stroke rats (MCAo). As to the kind of experiment: Pre-stroke i.c.v. treatment, neurological and locomotor tests in MCAo stroke rats. The settings on record: 100 μM×20 μL i.c.v. 10-15 min prior to 60-min MCAo; tested D2; p=0.00438, t-test. How it is done: Psilocybin or vehicle was given before or after the MCAo. For the pretreatment, animals were anesthetized. Psilocybin (100 μM×20 μL, n=7) or vehicle (saline, 20 μl, n=7) was administered intracerebroventricularly (i.c.v., AP, −0.8 mm; LV, −1.5 mm; DV, −3.5 mm) at 15 min before MCAo through a Hamilton microsyringe. The speed of injection was controlled by a syringe pump (Micro 4, WPI, Sarasota, FL). A subgroup of animals were used to examine the interaction of Psilocybin and ANA12. These animals received Psilocybin (100 μM×20 μL, i.c.v.) at 15 min before MCAo.
As psilocybin was neuroprotective in primary neuronal culture, we next examined if a similar protective response can be found in experimental stroke animals. A total of 14 adult rats were used for this analysis. Psilocybin (100 μM×20 μL, n=7) or vehicle (saline, 20 μL, n=7) was delivered to the lateral ventricle (i.c.v., coordinates: AP:0.8 mm, Lat:1.5 mm, DV −3.5 mm) at 10-15 min prior to the a 60-min MCAo. Behavioral tests were conducted two days (or D2) after MCAo (FIG. 2A). […] Locomotoractivity was examined in infra-red activity chambers for one hour.

On to `CN(C)CCc1c[nH]c2cccc(OP(=O)(O)O)c12` [Psilocybin, 4-phosphoryloxy-N,N-dimethyltryptamine], for which the “Bederson's neurological score” value is “significantly decreased”.
